{"source": "the supplement of paper PMC5499739", "note": "In all, about 16,000 sequences were measured (“Z-score”: median about -0.37, highest 2% from about 3.2 on). Some of the results follow."}
{"system": "RBM10 RRM1-ZnF (GST-tagged construct)", "experiment": "RNAcompete 7-mer binding Z-score; higher = stronger binding preference", "procedure,_shortened": "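GST-tagged RBM10 constructs (20 pmol) and a designed pool of 241 399 RNAs up to 41 nt (1.5 nmol) were allowed to bind for 30 min at 4°C in 1 ml Hepes pH 7.8 buffer with glutathione Sepharose beads. After four 2-min washes at 4°C, bound RNA was identified by microarray hybridisation. Enrichment was scored per heptamer motif as a one-sided Z-score across the probes containing it.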"}
{"sequence": "ACUCAUU", "RNAcompete 7-mer binding Z-score": -0.971}
{"sequence": "CGCUAGU", "RNAcompete 7-mer binding Z-score": -0.532}
{"sequence": "GUGGCCA", "RNAcompete 7-mer binding Z-score": 0.16}
{"sequence": "CUGUUCU", "RNAcompete 7-mer binding Z-score": -0.847}
{"sequence": "UUGCGUG", "RNAcompete 7-mer binding Z-score": 0.095}
{"sequence": "AUGAGGU", "RNAcompete 7-mer binding Z-score": 1.9}
{"sequence": "UCUCGUG", "RNAcompete 7-mer binding Z-score": -0.347}
{"sequence": "GAACGGU", "RNAcompete 7-mer binding Z-score": 1.64}
{"sequence": "CGUCUGG", "RNAcompete 7-mer binding Z-score": -0.116}
{"sequence": "GUAUAGC", "RNAcompete 7-mer binding Z-score": 0.348}
{"sequence": "UAUGCUG", "RNAcompete 7-mer binding Z-score": -0.152}
{"sequence": "GACCGAC", "RNAcompete 7-mer binding Z-score": -0.672}
{"sequence": "GCUCCGU", "RNAcompete 7-mer binding Z-score": -0.714}
{"sequence": "AUCCUUU", "RNAcompete 7-mer binding Z-score": -0.919}
{"sequence": "CACGUGC", "RNAcompete 7-mer binding Z-score": -0.379}
{"sequence": "CUACCUC", "RNAcompete 7-mer binding Z-score": -0.782}
{"sequence": "CUCGUAG", "RNAcompete 7-mer binding Z-score": -0.496}
{"sequence": "CCUGUAG", "RNAcompete 7-mer binding Z-score": -0.415}
{"sequence": "CACAGCC", "RNAcompete 7-mer binding Z-score": -0.467}
{"sequence": "GUUCGUA", "RNAcompete 7-mer binding Z-score": -0.526}
{"sequence": "ACCAGUC", "RNAcompete 7-mer binding Z-score": -0.626}
{"sequence": "CGCUGGG", "RNAcompete 7-mer binding Z-score": 1.27}
{"sequence": "AGGGUAC", "RNAcompete 7-mer binding Z-score": 2.1}
{"sequence": "UAAAUGC", "RNAcompete 7-mer binding Z-score": -0.246}
{"sequence": "AAAACUU", "RNAcompete 7-mer binding Z-score": -0.652}
{"sequence": "AGACGCG", "RNAcompete 7-mer binding Z-score": -0.418}
{"sequence": "GUCCGAU", "RNAcompete 7-mer binding Z-score": -0.483}
{"sequence": "AGGAAGC", "RNAcompete 7-mer binding Z-score": 1.08}
{"sequence": "ACCUUAA", "RNAcompete 7-mer binding Z-score": -0.883}
{"sequence": "ACAUCCU", "RNAcompete 7-mer binding Z-score": -0.909}
{"sequence": "AAUGCCU", "RNAcompete 7-mer binding Z-score": -0.72}
{"sequence": "AGCCUGA", "RNAcompete 7-mer binding Z-score": -0.587}
{"sequence": "UAGUUCA", "RNAcompete 7-mer binding Z-score": -0.503}
{"sequence": "AUUCUGA", "RNAcompete 7-mer binding Z-score": -0.811}
{"sequence": "CAUCCCG", "RNAcompete 7-mer binding Z-score": -0.591}
{"sequence": "UCAAGCG", "RNAcompete 7-mer binding Z-score": -0.282}
{"sequence": "GAGUCGG", "RNAcompete 7-mer binding Z-score": 1.16}
{"sequence": "CAAUUUA", "RNAcompete 7-mer binding Z-score": -0.636}
{"sequence": "UGGCCGG", "RNAcompete 7-mer binding Z-score": 0.706}
{"sequence": "GCUAGUC", "RNAcompete 7-mer binding Z-score": -0.451}
{"sequence": "UGUUAGA", "RNAcompete 7-mer binding Z-score": -0.0642}
{"sequence": "UGAAAUA", "RNAcompete 7-mer binding Z-score": -0.285}
{"sequence": "CUGGCAC", "RNAcompete 7-mer binding Z-score": -0.00896}
{"sequence": "GGAUGGC", "RNAcompete 7-mer binding Z-score": 2.58}
{"sequence": "CGAUAAC", "RNAcompete 7-mer binding Z-score": -0.565}
{"sequence": "AGCGUAU", "RNAcompete 7-mer binding Z-score": -0.0317}
{"sequence": "UUAAAUU", "RNAcompete 7-mer binding Z-score": -0.685}
{"sequence": "UCUGAAC", "RNAcompete 7-mer binding Z-score": -0.724}
{"sequence": "AAGGUAA", "RNAcompete 7-mer binding Z-score": 2.97}
{"sequence": "ACGUCUG", "RNAcompete 7-mer binding Z-score": -0.591}
{"sequence": "UCUCGGU", "RNAcompete 7-mer binding Z-score": -0.366}
{"sequence": "CCUAAGU", "RNAcompete 7-mer binding Z-score": -0.558}
{"sequence": "GAUACGU", "RNAcompete 7-mer binding Z-score": -0.022}
{"sequence": "AGUCACA", "RNAcompete 7-mer binding Z-score": -0.197}
{"sequence": "AAAGCCA", "RNAcompete 7-mer binding Z-score": -0.6}
{"sequence": "UCAUGCG", "RNAcompete 7-mer binding Z-score": -0.594}
{"sequence": "UCGAUCG", "RNAcompete 7-mer binding Z-score": -0.642}
{"sequence": "CGACGAA", "RNAcompete 7-mer binding Z-score": -0.35}
{"sequence": "UCUUGCG", "RNAcompete 7-mer binding Z-score": -0.652}
{"sequence": "GUGGUGU", "RNAcompete 7-mer binding Z-score": 1.93}
{"sequence": "GUCACAA", "RNAcompete 7-mer binding Z-score": -0.266}
{"sequence": "GACACCA", "RNAcompete 7-mer binding Z-score": -0.412}
{"sequence": "UAGCAGC", "RNAcompete 7-mer binding Z-score": -0.21}
{"sequence": "UUUCUUU", "RNAcompete 7-mer binding Z-score": -0.772}
{"sequence": "UAGUGGG", "RNAcompete 7-mer binding Z-score": 2.76}
{"sequence": "GGGCAGU", "RNAcompete 7-mer binding Z-score": 2.28}
{"sequence": "CGCGUUC", "RNAcompete 7-mer binding Z-score": -0.594}
{"sequence": "UGCAAAU", "RNAcompete 7-mer binding Z-score": -0.493}
{"sequence": "CCCAUCA", "RNAcompete 7-mer binding Z-score": -0.847}
{"sequence": "GCGCUCG", "RNAcompete 7-mer binding Z-score": -0.24}
{"sequence": "UGUAAGU", "RNAcompete 7-mer binding Z-score": -0.142}
{"sequence": "CUCGAAG", "RNAcompete 7-mer binding Z-score": -0.415}
{"sequence": "UCUCUGA", "RNAcompete 7-mer binding Z-score": -0.691}
{"sequence": "CUGCAGA", "RNAcompete 7-mer binding Z-score": -0.428}
{"sequence": "CGAUGCG", "RNAcompete 7-mer binding Z-score": 0.231}
{"sequence": "UCGUUAU", "RNAcompete 7-mer binding Z-score": -0.698}
{"sequence": "AAUCUAU", "RNAcompete 7-mer binding Z-score": -0.591}
{"sequence": "UGGAAUC", "RNAcompete 7-mer binding Z-score": 0.475}
{"sequence": "UGUGUUG", "RNAcompete 7-mer binding Z-score": 0.319}
{"sequence": "UUACGGC", "RNAcompete 7-mer binding Z-score": -0.363}
{"sequence": "GCCCAAA", "RNAcompete 7-mer binding Z-score": -0.733}
{"sequence": "ACUUGAG", "RNAcompete 7-mer binding Z-score": -0.422}
{"sequence": "ACGAAAU", "RNAcompete 7-mer binding Z-score": -0.347}
{"sequence": "AAACCAA", "RNAcompete 7-mer binding Z-score": -0.548}
{"sequence": "GAUUCUA", "RNAcompete 7-mer binding Z-score": -0.681}
{"sequence": "AAUUCCA", "RNAcompete 7-mer binding Z-score": -0.782}
{"sequence": "GAAGAUG", "RNAcompete 7-mer binding Z-score": 1.81}
{"sequence": "UCACUUU", "RNAcompete 7-mer binding Z-score": -0.844}
{"sequence": "ACUGUCU", "RNAcompete 7-mer binding Z-score": -0.821}
{"sequence": "UCCUAGU", "RNAcompete 7-mer binding Z-score": -0.629}
{"sequence": "UCAGACA", "RNAcompete 7-mer binding Z-score": -0.555}
{"sequence": "GCGGGCG", "RNAcompete 7-mer binding Z-score": 2.18}
